Source: publication PMC12136788
The list shows a part of the results.

B1: chr17:76725537:76725647:-|CDS|ENSG00000070495|unk|FALSE|unique (ssRNA)
RNA: GGGAGUUCUACAGUCCGACGAUCUACUCAGUGAAGAUGAAGAUGAAAUACUACAUCGAGUACAUGGAGAGCACUCGAGAUGAUAGUCCCCUUUACAUCUUUGACAGCAGCUAUGGUGAACACCCUAAAAGAAGGAAACUUUUGCAACAGAGGAUUGAGCAUCA
B2: chr20:45293444:45293825:-|three_prime_utr|ENSG00000124159|control|control|control (ssRNA)
RNA: GGGAGUUCUACAGUCCGACGAUCCGGGGCGGAGGCGCUGGCGGGCUUCCGGCAUUGAGCUGAGUUGGCCUCGCCCGGACCAUUAGGCGGACUGCGGCGUCAGGGGGAUAGCGGGUGGUGAGGGAAGGGGCACGUGCUAGACCGCAACAGAGGAUUGAGCAUCA
B3: chr17:41822664:41822765:+|3pUTR|ENSG00000141756|msi1|FALSE|unique (ssRNA)
RNA: GGGAGUUCUACAGUCCGACGAUCUUCCUUAAAAUGUUUGGAUUUGCAAAGCCAAUUUGGGGCCUGUGGAGCCUGGGGUUGGAUAGGGCCAUGGCUGGUCCCCCACCAUACCUCCCCUCCACAUCACUGACACAGCUGAGCUUGCAACAGAGGAUUGAGCAUCA
B4: chr22:41636480:41636706:+|CDS|ENSG00000196419|unk|FALSE|unique (ssRNA)
RNA: GGGAGUUCUACAGUCCGACGAUCAUGGGCCACGGAUCUGACUACUCACUCAGUGAAGUGCUGUGGGUCUGUGCCAACCUCUUUAGUGAUGUCCAAUUCAAGAUGAGUCAUAAGAGGAUCAUGCUGUUCACCAAUGAAGACAACCAACAGAGGAUUGAGCAUCA
B5: chr12:14501823:14501924:+|3pUTR|ENSG00000171681|unk|total|mutant (ssRNA)
RNA: GGGAGUUCUACAGUCCGACGAUCUUUUGUUGUUUGCUCUUUUGCUUUAAAUAUUCUCCAAAUUACCAUUUAUGCAACAUGGUCCGGGUUAAUACUGCAUGGUAUUCAUUUAUCUUGUUUCAUGAACUUUCCAGUACUGUACAACAACAGAGGAUUGAGCAUCA
B6: chr5:137939581:137939637:-|3pUTR|ENSG00000031003|msi1_unk|total|mutant (ssRNA)
RNA: GGGAGUUCUACAGUCCGACGAUCUGUCCGUAAAAUUUUGCAAUUCGCUGGUCACACAGCUCCCGGAUGAAGAUAACAGUUGGCCGACCAAAAGGUGACCUCGCUCCGUAUAUUGAAAACACACACCACACAUCACACACAGAACAACAGAGGAUUGAGCAUCA
B7: chr4:70689993:70690094:+|CDS|ENSG00000132467|unk|total|mutant (ssRNA)
RNA: GGGAGUUCUACAGUCCGACGAUCAGAGCCAAAAUCCGAAGAAGAGGCCAGGUUCGUGAAGUUCGUAAAGAAGAGCAACGUUACCGUGGUGAAUUAUCUGGCAUUCGUGCAGGAGUUAAAAAGAGCAUUAAGCUUAAAUGAAGUCAACAGAGGAUUGAGCAUCA
B8: ENSG00000021826:stop:overlap|stop_codon|ENSG00000021826|stop_codon|NA|stop_codon (ssRNA)
RNA: GGGAGUUCUACAGUCCGACGAUCGCAAGGUGGACUCCAAGAGUCUUUUCCACUACAGGCAGUACAGUGCUGGAAAAGCAGCAUAGAGAUGCAGACACCCCAGCCCCAUUAUUAAAUCAACCUGAGCCACAUGUUAUCUAAAGGCAACAGAGGAUUGAGCAUCA
B9: ENSG00000198589:be:win_4701|CDS|ENSG00000198589|bound_else_gene|NA|bound_elsewhere_windowed (ssRNA)
RNA: GGGAGUUCUACAGUCCGACGAUCCAGUGAAAAUGAGAAUGUAUCACUCUCUGAAAUCACACCAGCAGCAUUCAGCACUUUAACUACGGCAUCAGUGGAAGAAUCUGAAAGCACAUCAUCUGCUCGAAGGAGGGACUCAGGCAUCAACAGAGGAUUGAGCAUCA
B10: chrX:51490010:51491748:-|three_prime_utr|ENSG00000196368|control|control|control (ssRNA)
RNA: GGGAGUUCUACAGUCCGACGAUCACUCCUUCCCUGUCUAUACCACUGACUCUUGCUCUGGUUGUUGUACUCUUAUACGUGAAUAGACUCUUAAUUCAGCACCUAUAGCCUUUUGUUGUGCUUUUUUGAUGUGUCUGCCUUCAUCAACAGAGGAUUGAGCAUCA
B11: chr15:77046258:77046342:-|3pUTR|ENSG00000140391|msi1_unk|total|mutant (ssRNA)
RNA: GGGAGUUCUACAGUCCGACGAUCAAAAAUAUUUACUGCCGUCCAAUAAGACCGCAGCUGUACAAAAUGACUAAAACCGAUUGCCGGAUCAUAUGGCGUAUAUCUUGGUUCAUCUUCAAAAUCAGAGACUGAGCUUUGAAACUACAACAGAGGAUUGAGCAUCA
B12: chr8:70573615:70573716:-|3pUTR|ENSG00000067167|msi1|total|mutant (ssRNA)
RNA: GGGAGUUCUACAGUCCGACGAUCCAGUGUUCACAUCUUGUUCCCCAUUUCUCACUUGUGUCACCAGCUGUUUGUGCCAUUUUCCGUGUAAAAGUUGCAGACCUAUCCGAUCUGCAGUUUAAGUUGCCAUGCUGCCCGGAAAUUCAACAGAGGAUUGAGCAUCA
B13: ENSG00000070961:be:win_1951|CDS|ENSG00000070961|bound_else_gene|NA|bound_elsewhere_windowed (ssRNA)
RNA: GGGAGUUCUACAGUCCGACGAUCGCAUUCAGAGAUUUUCCAGCAGGAGAACCAGAACCAGAGUGGGAUAAUGAAAAUGAUAUUGUCACCGGCCUUACAUGCAUUGCUGUUGUGGGGAUUGAAGAUCCUGUGAGACCUGAGGUGCAACAGAGGAUUGAGCAUCA
B14: ENSG00000198589:be:win_6851|CDS|ENSG00000198589|bound_else_gene|NA|bound_elsewhere_windowed (ssRNA)
RNA: GGGAGUUCUACAGUCCGACGAUCAAGUUCCAAAGUUUCACUAUGGUACUCAUUACUCAACUGCAAGUUUUGUUCUUGCAUGGCUGCUAAGAAUAGAACCCUUUACAACUUAUUUCCUAAAUUUGCAAGGAGGCAAAUUUGAUCCAACAGAGGAUUGAGCAUCA
B15: chr2:46903092:46903222:-|3pUTR|ENSG00000180398|msi1|FALSE|unique (ssRNA)
RNA: GGGAGUUCUACAGUCCGACGAUCAAGCAGAAACCCCUGAUAAACUGAUCAGAUCUCAUGAGACUUAUUCACUGUCACGAGAAUAGCACGGGAAAGACUGGCCCCCAUGAUUCAAUUACCUCCCCCUGGGUCUGUCCCACAACACAACAGAGGAUUGAGCAUCA
B16: ENSG00000140057:stop:overlap|stop_codon|ENSG00000140057|stop_codon|NA|stop_codon (ssRNA)
RNA: GGGAGUUCUACAGUCCGACGAUCCGCGGCCUGACUUUGCGGUGGAGACGUACUCUGUAAGUCCCGGAGGCUCUGGCCAGGAGUAGACAGAGGGAAGAGUCACCUUCCGCUCCAACGCCUUGACAACUUGUUUUACUGUUUGCCCAACAGAGGAUUGAGCAUCA
B17: chr13:38882223:38882324:+|3pUTR|ENSG00000150893|msi1|FALSE|unique (ssRNA)
RNA: GGGAGUUCUACAGUCCGACGAUCAGAAAAAUAAGGUCAGGAGAAAAAGAAUAAUGCCUACAGAUUAUCCUUCAGAUGCUGGCUAGAAUCCCCUUUGACUUCUAGCCAUAAGCUGGCCACAUUGGACAUCUUGGUCACUGCAGACAACAGAGGAUUGAGCAUCA
B18: ENSG00000198589:be:win_4051|CDS|ENSG00000198589|bound_else_gene|NA|bound_elsewhere_windowed (ssRNA)
RNA: GGGAGUUCUACAGUCCGACGAUCGUCAUCUUUGUACACAACACAAUUCAUCUCAUCUCUCAAGUGAUGGACAAUAUGGUCAUGGCUUGUGGGGGUAUACUGCCAUUGCUUUCAGCUGCUACAUCGGCUACACAUGAACUGGAACAACAGAGGAUUGAGCAUCA
B19: chr2:1633824:1633925:-|3pUTR|ENSG00000130508|msi1|FALSE|unique (ssRNA)
RNA: GGGAGUUCUACAGUCCGACGAUCAUUUAAUUCUUUUAAAAUGAAAAAUUGGUGCUACUAUUAAAUUGCACAGUUGAAUCAUUUAGGCGCCUAAAUUGAUUUUGCCUCCCAACACCAUUUCUUUUUAAAUAAAGCAGGAUACCUCAACAGAGGAUUGAGCAUCA
B20: chr10:72062367:72062468:-|3pUTR|ENSG00000107742|unk|total|mutant (ssRNA)
RNA: GGGAGUUCUACAGUCCGACGAUCCCUUGAUCCACACUGCUCCUGGCAGAGUGAGUCACCCAAAGGCCCCUUCGGCCUCCUUGCCGCUGUUUUCUUUCCUUUUGUUGUUGGUUUUAAAAUACAUUCACACACAAAUACAAAUUGCAACAGAGGAUUGAGCAUCA
B21: chr7:101138022:101138407:+|3pUTR|ENSG00000106366|msi1|FALSE|unique (ssRNA)
RNA: GGGAGUUCUACAGUCCGACGAUCCUCUUGGUGGGGAGGGGUGUACCUAAAUAUUUAUCAUAUCCUUGCCCUUGAGUGCUUGUUAGAGAGAAAGAGAACUACUAAGGAAAAUAAUAUUAUUUAAACUCGCUCCUAGUGUUUCUUCAACAGAGGAUUGAGCAUCA
B22: chr10:32268825:32268926:-|3pUTR|ENSG00000120616|unk|FALSE|unique (ssRNA)
RNA: GGGAGUUCUACAGUCCGACGAUCUGGGGACUUGACAGCAAUGCUCAUCUCUCAUGCUUCAAUUUUUCUUUUCUUACUGUUAAUAGGAAAAAAAUCAACAUCUGUAAAUUAAGAAUACAGCAAUUAUCUGUACAGUACUGCAUACAACAGAGGAUUGAGCAUCA

molecular target: T1, UNK ZnF1-6 (called full-length) (human, UniProt Q9C0B0 30-357); test: nsRBNS (natural sequence RNA bind-n-seq); RBNS binding buffer (assumed for nsRBNS): 25 mM Tris pH 7.5, 150 mM KCl, 3 mM MgCl2, 0.01% Triton X-100, 500 ug/ml BSA, 20 U/ml SUPERase-In, 4 C; UNK is unkempt and MSI1 is Musashi-1; names of the RNAs are library labels; protein concentration not given here; high values mean tight binding
T1 sequence: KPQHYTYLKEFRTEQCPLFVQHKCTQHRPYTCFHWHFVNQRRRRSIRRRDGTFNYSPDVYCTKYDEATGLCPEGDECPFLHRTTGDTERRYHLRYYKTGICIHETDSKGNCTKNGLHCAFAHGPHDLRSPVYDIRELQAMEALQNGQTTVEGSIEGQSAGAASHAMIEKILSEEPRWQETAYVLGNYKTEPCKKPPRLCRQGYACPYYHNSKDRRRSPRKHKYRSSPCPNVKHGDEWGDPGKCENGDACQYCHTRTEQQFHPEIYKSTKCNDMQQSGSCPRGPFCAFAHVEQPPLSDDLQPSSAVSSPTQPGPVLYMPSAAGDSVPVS

Row | Binder | binding signal [enrichment R]
1 | B1 | 0.475
2 | B2 | 1.16
3 | B3 | 0.73
4 | B4 | 0.565
5 | B5 | 0.446
6 | B6 | 0.877
7 | B7 | 0.467
8 | B8 | 0.445
9 | B9 | 0.55
10 | B10 | 0.672
11 | B11 | 0.245
12 | B12 | 0.491
13 | B13 | 0.666
14 | B14 | 0.489
15 | B15 | 0.87
16 | B16 | 0.884
17 | B17 | 0.337
18 | B18 | 0.804
19 | B19 | 0.713
20 | B20 | 0.476
21 | B21 | 1.63
22 | B22 | 0.657
